Results reported in PubChem BioAssay AID504832 (National Center for Advancing Translational Sciences (NCATS), 2011).
In all, about 310,000 compounds went through this assay and about 18,000 (5.8%) were called active. This list was built around the results that the source calls inconclusive (neither active nor inactive); the mix of calls is not that of the screen. Calls follow the shape of the dose curve; as a rule, active = well fitted inhibition curve with a large enough effect; inconclusive = small, poorly fitted or top-dose-only effect, or another doubt; inactive = no such curve, though single readings can be large or run the other way. Potencies of inconclusive entries are left out as doubtful fits.

Test: Primary qHTS for delayed death inhibitors of the malarial parasite plastid, 48 hour incubation
Settings: P. falciparum luciferase growth in erythrocytes; series mostly up to 28.7 µM; activity change, negative = inhibition: at the top concentration
Outline: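 Read-out is firefly luciferase luminescence from an integrated reporter in P. falciparum, so falling signal marks reduced parasite growth. Infected erythrocytes were at 2% hematocrit and 0.1% parasitemia (final) in Albumax-supplemented RPMI 1640.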
% is scaled to controls: 0 for no effect and ±100 for the full control effect; potency is read from the fitted curve at half-maximal effect; tags tell the direction and shape of the fitted curve.

Row | SMILES | Potency | activity change, negative = inhibition
1 | O=C(CSc1nc2ccccc2c(=O)n1-c1ccc(F)cc1)Nc1cc(S(=O)(=O)N2CCOCC2)ccc1Cl | active: 6.57 µM | 
2 | CC(C)Cn1cc(F)c(=O)n(CC(C)C)c1=O |  | inactive: 6.36%
3 | CCCCCCCCNC(=O)/C(C#N)=C/c1ccc2c(c1)OCCO2 |  | inactive: 3.24%
4 | CCOC(=O)C1=C(C)NC(C)=C(C(=O)OCC)C1c1cn(-c2ccccc2)nc1-c1ccco1 | active: 4.65 µM | 
5 | CC(C)OC(=O)C(C(=O)OC(C)C)=C1SC=CS1 |  | inactive: -3.31%
6 | Cc1cc(C)n2nc(C(=O)OC(C)C(=O)c3cc(C)c(C)cc3C)nc2n1 (stereo not drawn) |  | inactive: 11.2%
7 | CC(C)CC(=O)Nc1ccccc1-c1nnn(CC(=O)N2CCc3ccccc3C2)n1 |  | inactive: -3.49%
8 | CCC(C)NC(=O)CSc1nnc(-c2cc(OC)c(OC)c(OC)c2)c(-c2cc(OC)c(OC)c(OC)c2)n1 (stereo not drawn) | active: 10.4 µM | 
9 | COc1cc(CO)ccc1OCC(=O)Nc1ccc(Br)cc1 |  | inactive: 22%
10 | COc1ccc(/C=C/C(=O)OC2CCCN(C)C2)cc1 (stereo not drawn) |  | inactive: 16.8%
11 | CN(CC(=O)Nc1ccccc1Cl)C1CCCCC1 |  | inactive: 32.2%
12 | CC[C@H](C)[C@@H]1NC(=O)c2cc([N+](=O)[O-])cc(F)c2OCC[C@@H](C(N)=O)NC(=O)[C@H](CCCCN)NC1=O | inconclusive [inhibitor, single point] | 
13 | CCOC(=O)C1CCCN(C(=O)/C(=C/c2ccco2)NC(=O)c2ccccc2)C1 (stereo not drawn) | inconclusive [inhibitor, single point] | 
14 | COc1ccc(N2CCN(C(=O)c3cc4c(-c5cccc(OC)c5)nn(C)c4s3)CC2)cc1 | inconclusive [inhibitor, single point] | 
15 | Cc1ccc(S(=O)(=O)N2CCN=C2SC(C)c2ccccc2)cc1 (stereo not drawn) |  | inactive: -4.26%
16 | CCOc1ccc(Oc2cc(NC(=O)c3ccco3)cc([N+](=O)[O-])c2)cc1 | active: 6.57 µM | 
17 | Fc1ccc(OCCCCCN2CCCC2)cc1 |  | inactive: 1.11%
18 | O=c1c(N=Nc2ccc(O)cc2)c(-c2ccccc2)[nH]n1-c1ccc([N+](=O)[O-])cc1 |  | inactive: 11.4%
19 | CC1CCN(c2nc(-c3ccccc3O)nc3ccccc23)CC1 | inconclusive [inhibitor, partial curve, poor fit] | 
20 | CCOC(=O)C1(S(=O)(=O)c2ccccc2)CCN(Cc2ccccc2)CC1 | inconclusive [inhibitor, single point] | 
21 | Cc1cc(F)ccc1NCC(=O)Nc1ccccc1Br | inconclusive [inhibitor, single point] | 
22 | Cc1ccc(C(=O)NC2c3ccccc3-c3ccccc32)cc1 |  | inactive: 1.44%
23 | CC(C)C(C(=O)NCc1ccccc1)N(CC1CCCO1)C(=O)CNS(=O)(=O)c1ccccc1 (stereo not drawn) | inconclusive [inhibitor, partial curve, poor fit] | 
